Laboratory results from paper PMC4336329 (PLoS ONE, 2015).
About 14,000 (4.5%) of roughly 310,000 compounds showed an effect of 50% or more. The effect is printed as a negative number. The list shows a part of the results.

Target: human ether-à-go-go-related gene (hERG) potassium channel (human, UniProt Q12809)
Experiment: primary screen, population patch clamp on CHO cells stably expressing hERG
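Also: peak tail current of the secondary pulse compared with the same well before compound.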

Sequence of human ether-à-go-go-related gene (hERG) potassium channel (Q12809 whole entry, looked up): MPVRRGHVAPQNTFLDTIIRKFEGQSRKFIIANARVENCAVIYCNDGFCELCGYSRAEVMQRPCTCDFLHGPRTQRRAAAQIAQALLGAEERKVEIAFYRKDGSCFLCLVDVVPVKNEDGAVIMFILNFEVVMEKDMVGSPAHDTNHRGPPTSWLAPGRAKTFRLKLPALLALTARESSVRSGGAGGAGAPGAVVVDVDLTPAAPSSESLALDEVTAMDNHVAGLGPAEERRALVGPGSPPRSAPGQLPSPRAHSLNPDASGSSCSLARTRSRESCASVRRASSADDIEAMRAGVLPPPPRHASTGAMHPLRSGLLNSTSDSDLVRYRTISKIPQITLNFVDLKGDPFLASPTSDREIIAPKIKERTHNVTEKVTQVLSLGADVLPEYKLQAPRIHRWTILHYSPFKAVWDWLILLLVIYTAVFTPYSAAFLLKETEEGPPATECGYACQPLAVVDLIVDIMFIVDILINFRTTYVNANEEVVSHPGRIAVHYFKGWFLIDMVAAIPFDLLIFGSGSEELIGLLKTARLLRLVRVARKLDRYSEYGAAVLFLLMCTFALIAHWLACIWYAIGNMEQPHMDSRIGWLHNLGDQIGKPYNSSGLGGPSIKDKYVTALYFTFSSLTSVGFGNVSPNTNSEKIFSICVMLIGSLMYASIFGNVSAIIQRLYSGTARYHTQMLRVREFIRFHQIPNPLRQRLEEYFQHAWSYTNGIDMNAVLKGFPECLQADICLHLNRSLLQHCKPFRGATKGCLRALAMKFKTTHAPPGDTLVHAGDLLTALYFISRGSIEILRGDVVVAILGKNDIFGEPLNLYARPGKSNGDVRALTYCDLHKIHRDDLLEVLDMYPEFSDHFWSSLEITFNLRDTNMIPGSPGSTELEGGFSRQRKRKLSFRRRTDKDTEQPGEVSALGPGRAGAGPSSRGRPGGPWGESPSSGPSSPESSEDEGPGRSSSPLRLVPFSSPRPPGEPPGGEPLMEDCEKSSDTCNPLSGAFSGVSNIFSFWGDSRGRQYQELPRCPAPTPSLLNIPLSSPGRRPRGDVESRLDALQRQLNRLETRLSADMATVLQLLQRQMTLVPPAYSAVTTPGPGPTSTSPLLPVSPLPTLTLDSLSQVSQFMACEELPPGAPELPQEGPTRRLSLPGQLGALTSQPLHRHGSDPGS

Row | Compound | hERG current change (%, negative = inhibition) at 10uM
1 | CC(C)CNC(=O)CSc1nnc(CN2CCCCCC2=O)n1-c1ccccn1 | -5.7%
2 | CC(C)NS(=O)(=O)c1ccc(NC(=S)NC(=O)c2cccc([N+](=O)[O-])c2)cc1 | -46.4%
3 | CN1CCN(S(=O)(=O)c2ccc(N3CCN(c4ccc(O)cc4)CC3)c([N+](=O)[O-])c2)CC1 | -24.4%
4 | CN(Cc1nnc(SCC(=O)NCCc2ccccc2)n1C)S(=O)(=O)c1ccccc1 | -21.6%
5 | O=S(=O)(Nc1nc2ccccc2[nH]1)c1ccc(Cl)cc1 | -16%
6 | O=S(=O)(CCSc1nc2ccccc2s1)c1nc2ccccc2s1 | -0.246%
7 | CC(=O)c1cccc(S(=O)(=O)Nc2cccnc2)c1 | 11.9%
8 | Cc1cccc(Nc2nnc(-c3ccc(C(=O)N4C[C@H]5C[C@H](C4)c4cccc(=O)n4C5)cc3)c3ccccc23)c1 | -10.2%
9 | CCOCCc1nnc(NC(=O)c2cc(OC)c(OC)c(OC)c2)s1 | 5.98%
10 | COc1ccc2c(c1OC)C(=O)OC2Nc1ccccn1 (centres unmarked) | 3.26%
11 | CC(C)(C)c1ccc(C(=O)Nc2ccc(C=C(C#N)C#N)cc2)cc1 | 8.87%
12 | CCCn1c(C)cc(C(=O)COc2ncnc3sccc23)c1C | -1.31%
13 | COc1ccc(C(=O)N/N=C\c2coc3ccc(Cl)cc3c2=O)cc1 | 6.71%
14 | O=C(COC(=O)c1cc([N+](=O)[O-])ccc1N1CCOCC1)Nc1ccc(Cl)cc1 | -28.2%
15 | CCCCCCC(C)NC(=S)Nc1cc(S(=O)(=O)N(C)C)ccc1C (centres unmarked) | -2.15%
16 | Cc1ccc(C(=O)Nc2ccccc2NC(=O)c2ccc(C)o2)o1 | -11.7%
17 | Cc1cccc(C(=O)NC(=S)NNC(=O)c2ccc(Cl)cc2)c1 | 23.5%
18 | O=C(COC(=O)c1ccccc1NC(=O)c1ccccc1)c1cccc([N+](=O)[O-])c1 | -1.2%
19 | O=C(O)C1(c2ccccc2)CCN(S(=O)(=O)c2ccccc2)CC1 | 6.17%
20 | CC(C)=CCN1CCN(Cc2cn[nH]c2C2CCCCC2)CC1CCO (centres unmarked) | 0.0652%
21 | CCc1sc(C(=O)N2CCN(CC(=O)Nc3cccc(F)c3)CC2)cc1C | -65%
22 | COC(=O)C1=CNC=C(C(=O)OC)C1c1ccc(Cl)cc1 | -8.91%
23 | CN(Cc1ccccc1NS(=O)(=O)c1ccc2ccccc2c1)C1CCCCC1.Cl | 7.73%

Row | Compound | hERG current change (%, negative = inhibition) at 10uM
24 | O=C(c1ccc(Cl)cc1)C1CCN(C(=O)c2ccc(F)cc2)CC1 | -34.7%
25 | Cc1cc(C)cc(-n2ccn(CC(=O)NCCc3ccccc3)c(=O)c2=O)c1 | 18.1%
26 | COc1ccc(CNC(=O)CSc2nnnn2-c2ccccc2)cc1 | -38.6%
27 | N#Cc1cnc(NN)nc1 | 8.95%
28 | COC(=O)c1ccc(CSc2cc(C)c3ccccc3n2)o1 | 10.2%
29 | Clc1ccc(-c2nc3ncccn3c2Cl)cc1 | 17.1%
30 | O=C(c1cnn2c(C(F)F)cc(-c3ccccc3)nc12)N1CCCCC1c1cccnc1 (centres unmarked) | -37.9%
31 | CC(NC(=S)NC1CCCCC1)c1ccccc1 (centres unmarked) | 13.7%
32 | O=C(OCC#CCSc1nnc(-c2cccc3ccccc23)o1)c1cccs1 | 5.12%
33 | CN(Cc1ccccc1)C(=O)N1CCOCC1 | 20.6%
34 | O=C(O)CC1SC(=O)N(Cc2ccccc2)C1=O (centres unmarked) | 21%
35 | COc1ccc(S(=O)(=O)N2CCC(C(=O)N3CCCCC3)CC2)cc1OC | -0.887%
36 | COc1ccc(-c2cn(-c3ccccc3)c3[n+]2CCS3)cc1 | -38%
37 | CCN(CC)S(=O)(=O)c1ccc(NC2CCCc3ccccc32)nc1 (centres unmarked) | 10.6%
38 | COCCOC(=O)C1=C(N)OC(C)=C(C(=O)OC)C12C(=O)Nc1ccccc12 (centres unmarked) | 5.95%
39 | COc1ccc(-c2nc3c(c4nnc(SC(C)C(=O)Nc5ccc(C)cc5)n24)COC(C)(C)C3)cc1 (centres unmarked) | 20.7%
40 | Cc1ccc(C)c(OCCSc2nnc(C)c(=O)[nH]2)c1 | 44.7%
41 | CC1CCCCN1c1nc(-c2ccncc2)nc2ccccc12 (centres unmarked) | -12.8%
42 | CC(=O)N1CCc2cc(S(=O)(=O)NCCC(=O)NCCc3ccccc3)ccc21 | 17.2%
43 | Cc1cccc(NC(=O)c2ccc3nccnc3c2)c1C | 18%
44 | COC(=O)c1cccc(OCC(O)Cn2cnc3cc(C)c(C)cc32)c1 (centres unmarked) | -9.48%
45 | COc1cc(C(=O)OCC(=O)c2cc(C)n(C)c2C)cc(OC)c1OC | -1.54%
46 | COc1cc(C(F)(F)F)c(C(=O)NCc2cccc(Cl)c2)cn1 | 7.88%

Row | Compound | hERG current change (%, negative = inhibition) at 10uM
47 | CCOC(=O)c1nnn(-c2nonc2-c2ccccc2)c1C | -25.2%
48 | CC(C)C1CC(c2ccccc2)(C(CN)CO)CCO1.O=C(O)C(=O)O (centres unmarked) | 23%
49 | C/C(CC(=O)Nc1cc(C)ccn1)=N\NC(=O)c1ccccc1C | -1.76%
50 | COc1ccc(NC(=O)C(CC(=O)O)Cc2ccc(Br)cc2)cc1 (centres unmarked) | 11.9%
51 | O=C(CC(SCc1ccco1)c1ccc(O)cc1)c1cccs1 (centres unmarked) | -15%
52 | CC1CC(C)CN(CCCNC(=O)CN2C(=O)COc3ccc(S(=O)(=O)N4CCOCC4)cc32)C1 (centres unmarked) | 15.8%
53 | COc1ccc(C(=O)NNC(=O)OC(C)(C)C)cc1 | 17.2%
54 | CCOn1c(=O)c(=O)n(OC)c2ccccc21 | -6.73%
55 | Cc1cc2c(=O)n(Cc3ccco3)c(SCC(=O)NCc3ccco3)nc2s1 | -35.8%
56 | CC(=O)N1CCC(=NNc2ccnc3cc(Cl)ccc23)CC1 | -22.2%
57 | CC1CCc2nn(CC(=O)NC3CCCC3)cc2C1 (centres unmarked) | 1.3%
58 | Nc1nnc(SCC(=O)NCC(=O)Nc2ccc(F)c(F)c2F)s1 | 11.8%
59 | CCCC(C1=C(O)CC(C)(C)CC1=O)C1C(=O)CC(C)(C)CC1=O (centres unmarked) | 10.2%
60 | O=C(NC1CCC(=O)N(CCOc2ccccc2)CC1)OCc1ccccc1 (centres unmarked) | -30.2%
61 | CCOc1ccc2nc(SCc3ccc(F)cc3)sc2c1 | 1.39%
62 | CC(=O)c1c(C(C)=O)c(C)n(-c2ccc(C(=O)O)cc2)c1C | 10.7%
63 | CCN(CC)S(=O)(=O)c1cc([N+](=O)[O-])ccc1NNC(=O)Nc1ccccc1 | 1.68%
64 | CCCCNC(=O)NCc1cnn(C)c1C | -1.98%
65 | COc1ccc(C(CC(=O)NC(C)(C)C)n2cccc2)cc1 (centres unmarked) | 14.7%
66 | COCCCNc1nc(-c2ccncc2)nc2ccccc12 | -15.5%
67 | CCOc1ccc(N2CC(C(=O)Nc3ccc(S(=O)(=O)Nc4ncccn4)cc3)CC2=O)cc1 (centres unmarked) | 2.55%
68 | CSc1nc(O)c(C(c2ccccc2Cl)c2c(O)nc(SC)[nH]c2=O)c(=O)[nH]1 | -1.16%
69 | COc1ccc(-c2ncncc2-c2csc(C)n2)c(O)c1 | -7.79%

Row | Compound | hERG current change (%, negative = inhibition) at 10uM
70 | Cc1ccccc1-c1noc(-c2cccs2)n1 | 6.88%
71 | Cc1nc2ccc(S(=O)(=O)Nc3ccccc3C)cc2s1 | -11.2%
72 | O=C(CSCC(=O)c1ccccc1)Nc1ccccc1Cl | 4.19%
73 | Cc1cc(=O)[nH]c(SCC(=O)N2CCc3ccccc3C2)n1 | -8.82%
74 | Cl.O=C(C1CCN(S(=O)(=O)c2cccs2)CC1)N1CCN(Cc2ccccc2)CC1 | 3.79%
75 | CC(C)Oc1ccc(S(=O)(=O)N2CCOCC2)cc1NC(=O)C1COc2ccccc2O1 (centres unmarked) | -27.7%
76 | Cc1ccc(NC2CCCN(C(=O)c3ccnc(Cl)c3)C2)cc1C (centres unmarked) | -4.39%
77 | Cc1cccc2cc(/C=N/NC(=O)[C@H]3C[C@@H]3c3ccccc3)c(Cl)nc12 | 13.8%
78 | COc1ccc(CCNC(=O)Cc2ccc(OC)c(OC)c2)cc1OC | -4.93%
79 | Cc1cccc(N2CCN(C(=O)c3ccc4c(c3)NC(=O)C(CSCc3ccc(F)cc3)N4)CC2C)c1 (centres unmarked) | -3.32%
80 | CCOc1ccccc1NC(=O)C(NCC1CCCCC1)c1ccccc1 (centres unmarked) | 16.9%
81 | CC(=O)c1ccc(NC(=O)CN2CCN(c3ncccn3)CC2)cc1.O=C(O)C(=O)O | -27.8%
82 | CN(Cc1ccccc1)C(=O)COC(=O)Cn1cnc2ccccc21 | 25.5%
83 | O=C(NCCS(=O)(=O)N1CCN(c2ccccc2F)CC1)C1CC(=O)N(c2ccc(F)cc2)C1 (centres unmarked) | 10.6%
84 | COc1cccc(-c2nc(CS(=O)(=O)CC(=O)NCCCN3CCOCC3)c(C)o2)c1 | 7.17%
85 | Cc1ccc(S(=O)(=O)NNC(=O)c2ccc3ccccc3n2)cc1 | 3.47%
86 | CS(=O)(=O)c1ccc(NC(=O)CCN2C(=O)NC3(CCCC3)C2=O)cc1 | 9.37%
87 | c1ccc(COc2ccc(CN3CCN(c4ccccn4)CC3)cc2)cc1 | -23%
88 | CCOc1ccc(C(=O)O/N=C(\N)c2ccccn2)cc1OCC | -8.85%
89 | C/C(=N\NC(=O)c1ccc([N+](=O)[O-])cc1Cl)c1ccccc1 | 12.2%
